# Laboratory results as given in the supplement of paper PMC10037445.
# Where “and” joins values, the source holds several entries; their conditions need not be identical. Identical values can stand only once. The full ranking holds about 2,900 compounds; the median of “IRF Lucia reporter activity, fold change vs agonist alone” is about 0.9, and the highest 2% start at about 2.8. The list shows a part of the results.
# How the values were obtained:
# [1] = system: RAW-Dual; test: IRF Lucia reporter activity, fold change vs agonist alone; cytotoxicity flag (confluency mask): not cytotoxic; higher = enhanced IRF activity
# Method in brief: (§1)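 Library stock was pin-tooled at 50 nL into 384-well plates of RAW-Dual macrophages (50,000 cells/well, DMEM), followed 1 h later by a PRR agonist, and the cells were kept at 37 °C, 5% CO2. Supernatant collected after 20 hours was read for IRF by QuantiLuc luminescence and for NF-κB by QuantiBlue absorbance at 620 nm. Reporter activity is fold change over agonist-alone wells, and a well counted as cytotoxic when its IncuCyte confluency was below 70% of agonist controls in both mask sets.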
# [2] = system: RAW-Dual; test: IRF Lucia reporter activity, fold change vs agonist alone; higher = enhanced IRF activity; settings: agonist: MPLA (TLR4) […]
# Method in brief: as §1
# [3] = system: RAW-Dual; test: IRF Lucia reporter activity, fold change vs agonist alone; cytotoxicity flag (confluency mask): cytotoxic (confluency <70% of control); higher = enhanced IRF activity
# Method in brief: as §1
# [4] = agonist: 3'3'-cGAMP (STING) 10 ug/mL
# [5] = library stock concentration (final ~1000-fold dilution): 10 mM, cytotoxicity flag (confluency mask): not cytotoxic
# [6] = library stock concentration (final ~1000-fold dilution): 10 mM, cytotoxicity flag (confluency mask): cytotoxic (confluency <70% of control)
compound,measurement,setting,value
O=c1cc(N2CCOCC2)oc2c(-c3ccc4c(c3)OCCO4)csc12 (library stock concentration (final ~1000-fold dilution): 10 mM),IRF Lucia reporter activity,[1]; [4],0.12
same,IRF Lucia reporter activity,[1]; agonist: LPS (TLR4) 0.1 ug/mL,0.269
COC(=O)C1C(O)CCC2CN3CCc4c([nH]c5ccccc45)C3CC21.Cl (stereo not drawn),IRF Lucia reporter activity,[2]; [5],0.921
COC(=O)C1C(O)CCC2CN3CCc4c([nH]c5ccccc45)C3CC21.Cl (stereo not drawn) (library stock concentration (final ~1000-fold dilution): 10 mM),IRF Lucia reporter activity,[1]; [4],0.963
same,IRF Lucia reporter activity,[1]; agonist: LPS (TLR4) 0.1 ug/mL,1.17
CCOc1ccc(Cc2cc(C34OCC(CO)(O3)C(O)C(O)C4O)ccc2Cl)cc1 (stereo not drawn) (library stock concentration (final ~1000-fold dilution): 10 mM),IRF Lucia reporter activity,[1]; [4],1.09
same,IRF Lucia reporter activity,[1]; agonist: LPS (TLR4) 0.1 ug/mL,1.33
CCOc1ccc(Cc2cc(C34OCC(CO)(O3)C(O)C(O)C4O)ccc2Cl)cc1 (stereo not drawn),IRF Lucia reporter activity,[2]; [5],1.14
CC(C)CC(=O)Nc1cncc(-c2ccc3[nH]nc(-c4nc5cncc(-c6cccc(F)c6)c5[nH]4)c3c2)c1 (library stock concentration (final ~1000-fold dilution): 10 mM),IRF Lucia reporter activity,[3]; [4],0.0977
same,IRF Lucia reporter activity,[3]; agonist: LPS (TLR4) 0.1 ug/mL,0.271
Nc1ncnc2c1c(I)cn2C1OC(CO)C(O)C1O (stereo not drawn) (library stock concentration (final ~1000-fold dilution): 10 mM),IRF Lucia reporter activity,[3]; [4],0.00867
same,IRF Lucia reporter activity,[3]; agonist: LPS (TLR4) 0.1 ug/mL,0.015
CC(=O)Oc1cc(C)c(OC(C)=O)c2ccccc12 (library stock concentration (final ~1000-fold dilution): 10 mM),IRF Lucia reporter activity,[3]; [4],0.0215
same,IRF Lucia reporter activity,[3]; agonist: LPS (TLR4) 0.1 ug/mL,0.0477
CC(=O)Oc1cc(C)c(OC(C)=O)c2ccccc12,IRF Lucia reporter activity,[2]; [6],0.0702
COc1cc2ncnc(Nc3ccc(F)c(Cl)c3)c2cc1NC(=O)/C=C/CN1CCCCC1 (library stock concentration (final ~1000-fold dilution): 10 mM),IRF Lucia reporter activity,[3]; [4],0.441
same,IRF Lucia reporter activity,[3]; agonist: LPS (TLR4) 0.1 ug/mL,0.0146
COc1cc2ncnc(Nc3ccc(F)c(Cl)c3)c2cc1NC(=O)/C=C/CN1CCCCC1,IRF Lucia reporter activity,[2]; [6],0.43
CC1=CC(=O)c2ccccc2C1=O (library stock concentration (final ~1000-fold dilution): 10 mM),IRF Lucia reporter activity,[3]; [4],0.0131
same,IRF Lucia reporter activity,[3]; agonist: LPS (TLR4) 0.1 ug/mL,0.0149
CC1=CC(=O)c2ccccc2C1=O,IRF Lucia reporter activity,[2]; [6],0.0137
N[C@@H](C=O)[C@@H](O)[C@H](O)[C@H](O)CO (library stock concentration (final ~1000-fold dilution): 10 mM),IRF Lucia reporter activity,[1]; [4],0.749
same,IRF Lucia reporter activity,[1]; agonist: LPS (TLR4) 0.1 ug/mL,0.775
CC(O)C1C(=O)N2C(C(=O)O)=C(SCCNC=N)CC12.O (stereo not drawn) (library stock concentration (final ~1000-fold dilution): 10 mM water),IRF Lucia reporter activity,[1]; [4],1.2
same,IRF Lucia reporter activity,[1]; agonist: LPS (TLR4) 0.1 ug/mL,0.897
CC(O)C1C(=O)N2C(C(=O)O)=C(SCCNC=N)CC12.O (stereo not drawn),IRF Lucia reporter activity,"[2]; library stock concentration (final ~1000-fold dilution): 10 mM water, cytotoxicity flag (confluency mask): not cytotoxic",1.37
CCCc1nc2c(C)cc(-c3nc4ccccc4n3C)cc2n1Cc1ccc(-c2ccccc2C(=O)O)cc1,IRF Lucia reporter activity,[2]; [5],0.542
CCCc1nc2c(C)cc(-c3nc4ccccc4n3C)cc2n1Cc1ccc(-c2ccccc2C(=O)O)cc1 (library stock concentration (final ~1000-fold dilution): 10 mM),IRF Lucia reporter activity,[1]; [4],1.02
same,IRF Lucia reporter activity,[1]; agonist: LPS (TLR4) 0.1 ug/mL,0.971
CCc1c2c(nc3ccc(OC(=O)N4CCC(N5CCCCC5)CC4)cc13)-c1cc3c(c(=O)n1C2)COC(=O)C3(O)CC.Cl.O.O.O (stereo not drawn) (library stock concentration (final ~1000-fold dilution): 10 mM),IRF Lucia reporter activity,[1]; [4],0.87
same,IRF Lucia reporter activity,[1]; agonist: LPS (TLR4) 0.1 ug/mL,1.1
CCc1c2c(nc3ccc(OC(=O)N4CCC(N5CCCCC5)CC4)cc13)-c1cc3c(c(=O)n1C2)COC(=O)C3(O)CC.Cl.O.O.O (stereo not drawn),IRF Lucia reporter activity,[2]; [5],1.15
Cc1ccccc1C(=O)N1CCc2cc(-c3nc(NC(=O)Cc4ccc5c(c4)OCO5)sc3C)ccc21 (library stock concentration (final ~1000-fold dilution): 10 mM),IRF Lucia reporter activity,[1]; [4],0.982 and 1.01
same,IRF Lucia reporter activity,[1]; agonist: LPS (TLR4) 0.1 ug/mL,0.98 and 0.758
CC(C)(C)c1ccc(S(=O)(=O)NCc2ccc(C(=O)Nc3cccnc3)cc2)cc1 (library stock concentration (final ~1000-fold dilution): 10 mM),IRF Lucia reporter activity,[1]; [4],0.744
same,IRF Lucia reporter activity,[1]; agonist: LPS (TLR4) 0.1 ug/mL,0.865
COc1c(OC)c2occc2c2oc(=O)ccc12 (library stock concentration (final ~1000-fold dilution): 10 mM),IRF Lucia reporter activity,[1]; [4],0.684
same,IRF Lucia reporter activity,[1]; agonist: LPS (TLR4) 0.1 ug/mL,0.49
CC1(C)CCC2(C(=O)O)CCC3(C)C(=CCC4C5(C)CCC(=O)C(C)(C)C5CCC43C)C2C1 (stereo not drawn) (library stock concentration (final ~1000-fold dilution): 10 mM),IRF Lucia reporter activity,[1]; [4],1.18
same,IRF Lucia reporter activity,[1]; agonist: LPS (TLR4) 0.1 ug/mL,0.631
Cc1cc(N2CCOCC2)cc2[nH]c(-c3c(NCC(O)c4cccc(Cl)c4)cc[nH]c3=O)nc12 (stereo not drawn) (library stock concentration (final ~1000-fold dilution): 10 mM),IRF Lucia reporter activity,[1]; [4],0.0144
same,IRF Lucia reporter activity,[1]; agonist: LPS (TLR4) 0.1 ug/mL,0.0267
Cc1cc(N2CCOCC2)cc2[nH]c(-c3c(NCC(O)c4cccc(Cl)c4)cc[nH]c3=O)nc12 (stereo not drawn),IRF Lucia reporter activity,[2]; [5],0.0217
